Measured values taken from US12297265B2, “Antibody and use thereof” (SICHUAN KELUN-BIOTECH BIOPHARMACEUTICAL CO., LTD., priority 2018, dated 2025).

Legend:
[1] = test system: HEK293T-Claudin 18.2 cells; test: NK cell mediated ADCC on HEK293T-Claudin 18.2 cells (LDH); assay type: cell-based; conditions: HEK293T-Claudin 18.2 target cells; Table 14 experiment
Experimental: The steps were as follows: HEK293T-Claudin 18.2, L929-Claudin 18.2, KATOIII-Claudin 18.2 and NUGC-4 cells were harvested and centrifuged followed by adjustment of cell density. 1×10^4/well of cells were plated on a plate and incubated overnight. The medium was removed on the next day. NK92MI-CD16a cells (Huabo Biopharm) were centrifuged, resuspended in MEMA medium and adjusted to 1×10^6/mL, then 50 μL/well cells were added to the corresponding wells. […] For HEK293T-Claudin18.2, L929-Claudin18.2 and KATOIII-Claudin18.2 cells, ten antibody concentrations were tested, starting from 40 μg/mL with 5-fold dilution. For NUGC-4 cells, eleven antibody concentrations were tested, starting from 2 mg/mL with 5-fold dilution. 50 μL/well of the diluted antibodies were added to the corresponding wells and the reactions were left to stand in incubator at 37° C., 5% CO2 and incubated for 5.5h. Lysis buffer was then added to the positive control well and incubated for another 0.5h. 50 μL/well of Lactate Dehydrogenase (LDH) detection agent (DOJINDO LABORATORISE, CK12) were added to the wells and the absorbance at 490 nm were taken every 10 min on a plate reader (MD, SpectraMax M2). The results were imported into Graphpad Prism for curve fitting.
The cell used was HEK293T-Claudin 18.2. The ADCC activity of antibody 2C6.9-hz21 on HEK293T-Claudin 18.2 is stronger than that of IMAB362.

human Claudin 18.1 = target: T1, human Claudin 18.1 (Homo sapiens, UniProt P56856); test: Specificity by FACS, HEK293T-human Claudin 18.1 cells; assay type: binding; conditions: antibody 1000 nM
T1 construct: expressed in transfected cells; host or cells: HEK293T, infected with pLVX-IRES-puro lentivirus; clone HEK293T-Claudin 18.1-1C2
Experimental: (§1) The specificity of candidate antibodies was detected by FACS. The steps are as follows, HEK293T, HEK293T-human Claudin 18.1 and HEK293T-human Claudin18.2 cells were detached and then centrifuged. After washing twice with PBS, the cells were resuspended with PBS containing 1% BSA. 300,000 cells for each cell line were added with the candidate antibodies at a final concentration of 1000 nM, mixed well, and incubated for 1 h at 4° C., protected from light. Then the cells were washed for three times with PBS and FITC-labeled anti-human Fc secondary antibody (BioLegend, 409322) was added, followed by 0.5h of incubation at 4° C. in the dark. Detection was performed by flow cytometry (Beckman, Cytoflex) after washing with PBS for three times.

human Claudin18.2 [2] = target: T2, human Claudin18.2 (Homo sapiens, UniProt P56856); test: Specificity by FACS, HEK293T-human Claudin18.2 cells; assay type: binding; design: expressed in transfected cells; host or cells: L929, infected with pLVX-IRES-puro lentivirus, puromycin-selected monoclonal line; cells were formaldehyde-fixed for the cellular ELISA; conditions: antibody 1000 nM
Experimental: as §1

[3] = Monitoring of death and body weight during the tumor suppression experiment; assay type: in vivo; conditions: tumor-bearing Balb/c nude mice, combined with paclitaxel for injection, observation period
Excerpt: The mouse subcutaneous xenograft tumor model of NCI-N87-Claudin 18.2 was established by the method mentioned above. When the average volume of the tumors was about 110 mm^3, the tumor-bearing mice were grouped randomly according to tumor size. There were 3 groups: the group of anti-chicken lysozyme human IgG1 of isotype control (Negative Control, Chengdu Kelun-Biotech Co. Ltd., abbreviated as IgG1 WT), the group of paclitaxel for injection (Albumin Bound, Hunan Kelun), and the combination group of 2C6.9-hz21+Paclitaxel for injection. All samples were injected via tail vein twice a week for 3 weeks. After administration, the tumor volume and body weight of mice was observed and measured regularly, and the data analysis method is as described above.

human Claudin18.2 [4] = target: T2, human Claudin18.2; test: Flow cytometry affinity to HEK293T-Claudin 18.2 cells; assay type: binding; design: expressed in transfected cells
Experimental: The affinity of 2C6.9-hz21 to human claudin 18.2 on cell membrane was detected using HEK293T-Claudin 18.2 cells, as follows. HEK293T-Claudin 18.2 cells were detached and centrifuged, followed by washing for twice with PBS. And then the cells were resuspended in PBS containing 1% BSA and were plated into 96-well tip bottom plate at 300000 cells per well in a volume of 50 μl for 20 wells in total. 2C6.9-hz21 or IMAB362 antibody was then added with 11 concentrations starting from 1000 nM with three-fold dilution. Human IgG was served as negative control. The reactions were mixed well and incubated for 1 h at 4° C. in the dark. Following by three times of washing with PBS, the FITC-labelled anti-human Fc secondary antibody (Biolegend, 409322) was added and incubated for 0.5h in the dark. Detection was performed by flow cytometry (Beckman, Cytoflex) after washing for three times with PBS.

human Claudin18.2 [5] = target: T2, human Claudin18.2; test: Cellular ELISA on L929-Claudin 18.2 cells; assay type: binding; design: expressed in transfected cells; host or cells: L929, infected with pLVX-IRES-puro lentivirus, puromycin-selected monoclonal line; cells were formaldehyde-fixed for the cellular ELISA
Experimental: Human Claudin18.2 is a four transmembrane protein and has a complex structure. Cellular ELISA was thus carried out to maintain the structure of Claudin18.2. The stable cell line L929-Claudin 18.2 constructed in Example 1 were used for detection. Specifically, L929-Claudin 18.2 adherent cells were detached by 2 mM EDTA treatment. The cells were resuspended and adjusted to 2×10^5/mL and 100 μL of the resuspension was plated into 96 well plate and incubated overnight at 37° C. The next day, the media was removed, and the plate was washed with PBS once. 100 μL/well 4% formaldehyde was added to the plate. After 30 min of incubation at room temperature, formaldehyde was removed, followed by washing twice with PBS. Blocking buffer (PBS containing 2% BSA) was then added to the plate at 100 μL/well, and incubated at 37° C. for 2 h. After removal of blocking buffer, 100 μL/well of serially diluted antibodies (starting from 1 μM, with 4-fold dilution, for a total of 11 concentrations) were added to the corresponding wells, which were incubated at 37° C. for 2h afterwards. The plate was washed with 250 μL PBST for 5 times, and was allowed to stand for 2 min each time. 100 μL/well of horseradish peroxidase labeled anti-Human IgG secondary antibody (HRP-anti-Human IgG, Jackson ImmunoResearch, 109-035-003) diluted 1:10000 in PBS (containing 2% BSA) was added to the plate. The plate was incubated at 37° C. for 1 h and washed with 250 μL PB ST 6 times, wherein the plate was allowed to stand for 2 min each time. 100 μL/well of TMB solution (Thermo, 34029) was added. The reactions were incubated at 37° C. for 20 min and stopped with 50 μL 2 mol/L H2504. The absorbance at 450 nm was read on a plate reader (MD, SpectraMax M2) and the results were subjected to curve fitting by Graphpad Prism.

B1: 2C6.9-hz21: humanized antibody of 2C6.9; VH SEQ ID NO: 40, VL SEQ ID NO: 41; heavy chain SEQ ID NO: 106, light chain 107 (antibody)
heavy: QVQLQESGPGLVKPSETLSLTCTVSGFSLTRYGVSWIRQPPGKGLEWIGVIWGEGNTNYNPSLKSRVTISKDSSKSQVSLKLSSVTAADTAVYYCARVNFGNALDYWGQGTLVTVSS[sequence of human IgG1 constant region omitted]
light: DIVMTQSPDSLAVSLGERATINCKSSQSLLNSGNQKNYLTWYQQKPGQPPKLLIYWASTRDSGVPDRFSGSGSGTDFTLTISSLQAEDVAVYYCQNDFIFPLTFGGGTKVEIKRTVAAPSVFIFPPSDEQLKSGTASVVCLLNNFYPREAKVQWKVDNALQSGNSQESVTEQDSKDSTYSLSSTLTLSKADYEKHKVYACEVTHQGLSSPVTKSFNRGEC
modifications: heavy chain amino acid sequence of humanized antibody 2C6.9 hz21; light chain amino acid sequence of humanized antibody 2C6.9 hz21
In the case of B1, the “Max Cytotoxicity” value [1] is reported as 30%, the “binding to human Claudin 18.1” value (human Claudin 18.1) is reported as “not human Claudin 18.1” and the “binding to human Claudin 18.2” value (human Claudin18.2 [2]) is reported as “specifically bind to human Claudin 18.2”. For the same molecule, the “drug toxicity (death, weight loss)” value [3] was “no obvious drug toxicity”, the “Max MFI” value (human Claudin18.2 [4]) was 165866.3 and the “Max Signal Value (OD450)” value (human Claudin18.2 [5]; Table 9 experiment) was 0.92 OD450. The “Max Signal Value (OD450)” value (human Claudin18.2 [5]; Table 10 experiment) was 0.8 OD450.
